Assay results: the BET-seq Pho4 binding data (Le et al. 2018)
The other results are listed elsewhere or left out. Values were computed here from the reads of four pooled replicates and scatter widely.

target: T1, Pho4 (S. cerevisiae) (UniProt P07270); test: relative binding free energy (BET-seq); higher = weaker binding; conditions: reference: library average
T1 sequence: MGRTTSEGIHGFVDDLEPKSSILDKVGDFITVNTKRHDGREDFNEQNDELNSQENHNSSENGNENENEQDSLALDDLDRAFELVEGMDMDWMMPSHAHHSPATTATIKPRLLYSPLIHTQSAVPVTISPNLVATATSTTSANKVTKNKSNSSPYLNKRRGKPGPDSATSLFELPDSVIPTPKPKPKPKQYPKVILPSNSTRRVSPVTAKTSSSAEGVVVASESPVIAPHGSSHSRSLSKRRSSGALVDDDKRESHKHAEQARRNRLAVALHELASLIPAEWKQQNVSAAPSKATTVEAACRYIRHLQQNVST

Sequence | relative binding free energy
GTTATCACGTGATTAT | 0.16 kcal/mol
TCTGGCACGTGAGGAT | 0.21 kcal/mol
GTATTCACGTGGGTGG | 0.1 kcal/mol
AGTTCCACGTGTTGTA | 0.02 kcal/mol
CTTGTCACGTGGGGCT | 0.03 kcal/mol
GTCTGCACGTGGAGGA | 0.02 kcal/mol
ATAAGCACGTGATAGG | -0.08 kcal/mol
ACGAACACGTGGTGTT | -0.08 kcal/mol
GTGGGCACGTGAGCTG | 0.05 kcal/mol
GGTAACACGTGCAGGT | -0.01 kcal/mol
TGAACCACGTGGTGTT | -0.14 kcal/mol
ATAGTCACGTGGAGTA | 0.15 kcal/mol
AACGACACGTGTGGGT | 0.13 kcal/mol
GGTTGCACGTGGCGAA | 0 kcal/mol
GGTATCACGTGAGGTT | 0.34 kcal/mol
GTGATCACGTGCAAGG | 0.11 kcal/mol
AGGTACACGTGTTCTG | -0.07 kcal/mol
TGAGACACGTGGTTTA | -0.01 kcal/mol
ATGGACACGTGGGGGA | -0.1 kcal/mol
AGGGCCACGTGGGGTG | -0.27 kcal/mol
TGGAACACGTGGAGCG | 0.05 kcal/mol
CAAGTCACGTGGGGGG | 0 kcal/mol
TTAGGCACGTGTTACG | -0.17 kcal/mol

Sequence | relative binding free energy
TTAATCACGTGTTTTT | 0.17 kcal/mol
TCGATCACGTGAGTGG | 0.17 kcal/mol
TAGCACACGTGTATGT | -0.02 kcal/mol
CGGTTCACGTGTTTGA | 0.31 kcal/mol
AGAGCCACGTGGGGAT | -0.21 kcal/mol
TGTGGCACGTGTGTTA | -0.09 kcal/mol
TTAAGCACGTGTATAA | -0.07 kcal/mol
CTGTGCACGTGTGAGA | 0.08 kcal/mol
TTTTACACGTGTGACA | 0.04 kcal/mol
GTTTACACGTGGGACT | 0.17 kcal/mol
TGGAACACGTGGAGGC | 0.24 kcal/mol
GGACGCACGTGGGGTC | -0.13 kcal/mol
ACTGTCACGTGGAGGT | 0 kcal/mol
TGGGTCACGTGAGGCA | 0.25 kcal/mol
GTTGTCACGTGGAAAG | 0.18 kcal/mol
AGGGGCACGTGGCTTT | -0.09 kcal/mol
GGTTACACGTGGAGGT | 0.11 kcal/mol
GGGCGCACGTGGGATA | -0.08 kcal/mol
TCTTGCACGTGATGGA | 0.15 kcal/mol
GGGTGCACGTGGACTA | 0.03 kcal/mol
CGAGGCACGTGGATTT | -0.05 kcal/mol
GTTGCCACGTGTAAGT | 0.02 kcal/mol
GTACGCACGTGTGTTG | -0.25 kcal/mol

Sequence | relative binding free energy
TTTGGCACGTGTAGCA | -0.21 kcal/mol
TTGGTCACGTGTACGT | 0.11 kcal/mol
GTGTTCACGTGTGTCC | 0.25 kcal/mol
ATGATCACGTGGAATT | 0.16 kcal/mol
TATGGCACGTGCTTAT | -0.22 kcal/mol
GGGATCACGTGGGGCG | 0.15 kcal/mol
TATACCACGTGGAGGG | 0.02 kcal/mol
AGAGTCACGTGGTTCG | 0.06 kcal/mol
TTTCTCACGTGGATAT | 0.21 kcal/mol
TGTTACACGTGGTTGA | 0.24 kcal/mol
ATGTACACGTGAGGTC | 0.25 kcal/mol
ATTTCCACGTGTGGTT | 0.08 kcal/mol
TGGTTCACGTGTATGA | 0.39 kcal/mol
ATTCTCACGTGGAGTG | 0.15 kcal/mol
TAGGGCACGTGATGCT | -0.04 kcal/mol
TGGAGCACGTGGATGA | -0.23 kcal/mol
TGTAGCACGTGGGCAC | -0.15 kcal/mol
ATTGGCACGTGAGACT | 0.15 kcal/mol
TATGGCACGTGCTTGC | -0.12 kcal/mol
TCTGGCACGTGCTGGA | -0.03 kcal/mol
AATGACACGTGTGGTG | 0.14 kcal/mol
TATTGCACGTGCGGTT | -0.02 kcal/mol
GCTAGCACGTGGTGGA | -0.1 kcal/mol

Sequence | relative binding free energy
AGTTCCACGTGGGGAT | -0.04 kcal/mol
ACAGGCACGTGCTGGG | -0.18 kcal/mol
TTGGGCACGTGCAGTG | -0.16 kcal/mol
GAATGCACGTGGGGCA | -0.01 kcal/mol
CTGAACACGTGATGTT | 0.23 kcal/mol
TTGTCCACGTGCTGGT | -0.02 kcal/mol
AGTAGCACGTGGGGTG | -0.16 kcal/mol
CGGTGCACGTGCGTTT | 0.01 kcal/mol
TTTCTCACGTGCTCGT | 0.3 kcal/mol
AGAGGCACGTGCTTGA | -0.14 kcal/mol
GGGGTCACGTGAACTG | 0.34 kcal/mol
GGGAACACGTGGGGCT | 0 kcal/mol
CAATGCACGTGAAGGT | 0.31 kcal/mol
ATAAACACGTGTGTTA | -0.16 kcal/mol
ATTTTCACGTGTCATG | 0.21 kcal/mol
TGGTACACGTGAACGG | 0.2 kcal/mol
ATAAACACGTGCTGTG | 0.06 kcal/mol
AGAGTCACGTGCAAGG | 0.07 kcal/mol
TTAGGCACGTGGGATA | -0.16 kcal/mol
GTTTTCACGTGGGAAC | 0.5 kcal/mol
ATGTCCACGTGGGAGT | -0.14 kcal/mol
TACTACACGTGTGGTA | 0.11 kcal/mol
TATTTCACGTGGTTCG | 0.19 kcal/mol

Sequence | relative binding free energy
TATGTCACGTGGAGCT | 0.02 kcal/mol
AATGGCACGTGTGATA | -0.05 kcal/mol
TTTGTCACGTGTCTGT | 0.12 kcal/mol
GTTTCCACGTGAGTTG | 0.23 kcal/mol
CGGGTCACGTGTTCTT | 0.22 kcal/mol
ACGTTCACGTGGTTGT | 0.11 kcal/mol
TGTGACACGTGTTTAG | -0.06 kcal/mol
GTAGGCACGTGGGCTG | -0.19 kcal/mol
TTAAGCACGTGGTAGG | -0.13 kcal/mol
GGTTTCACGTGACGGA | 0.39 kcal/mol
AAAGTCACGTGGGCAT | -0.01 kcal/mol
AGAAGCACGTGGTTGG | -0.19 kcal/mol
TGTGTCACGTGTATAA | 0.02 kcal/mol
GTAGTCACGTGGATAT | 0.06 kcal/mol
AGTGGCACGTGTTTAC | -0.05 kcal/mol
AAGCTCACGTGATGGT | 0.43 kcal/mol
GTTTGCACGTGTTGAG | 0.19 kcal/mol
CATGGCACGTGGAGTT | -0.04 kcal/mol
TGGATCACGTGAGCTT | 0.29 kcal/mol
TGGAGCACGTGTGTTA | 0.02 kcal/mol
GTATACACGTGGGGAA | -0.12 kcal/mol
TTTAACACGTGACATT | 0.18 kcal/mol
TGATGCACGTGAATTG | 0.2 kcal/mol
